In PubChem BioAssay AID624417 (National Center for Advancing Translational Sciences (NCATS), 2012):
In all, about 410,000 compounds went through this assay and about 6,400 (1.6%) were called active. This list was built around the results that the source calls inconclusive (neither active nor inactive); the mix of calls is not that of the screen. The call rests on the fitted dose curve; in most records, active means well fitted inhibition curve with a large enough effect; inconclusive means small, poorly fitted or top-dose-only effect; inactive means no such curve, though single readings can be large or run the other way. Potencies of inconclusive entries are left out as doubtful fits.

Biological target: Glucagon-like peptide 1 receptor (Homo sapiens) (UniProt P43220)
Sequence of UniProt P43220 (P43220 whole entry, looked up): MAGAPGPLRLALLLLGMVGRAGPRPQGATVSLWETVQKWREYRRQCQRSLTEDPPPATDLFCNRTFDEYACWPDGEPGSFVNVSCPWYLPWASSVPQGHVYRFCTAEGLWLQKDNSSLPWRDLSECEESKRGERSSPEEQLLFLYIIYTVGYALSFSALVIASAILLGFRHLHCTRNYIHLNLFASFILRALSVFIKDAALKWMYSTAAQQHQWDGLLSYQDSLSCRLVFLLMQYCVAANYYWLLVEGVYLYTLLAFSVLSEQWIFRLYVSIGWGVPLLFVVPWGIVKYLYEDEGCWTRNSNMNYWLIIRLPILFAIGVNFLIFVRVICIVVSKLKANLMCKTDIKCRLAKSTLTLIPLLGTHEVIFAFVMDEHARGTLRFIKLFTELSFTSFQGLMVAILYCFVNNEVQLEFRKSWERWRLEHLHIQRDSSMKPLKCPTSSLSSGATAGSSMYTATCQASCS
Experiment: qHTS of GLP-1 Receptor Inverse Agonists (Inhibition Mode); further: nearly all actives have a fitted effect of over 55% in size
Settings: HEK293 GLP-1R CRE-luciferase, luminescence, 24 h, GLP-1R form is constitutively active; series mostly up to 38.3 µM
Outline: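 Seeding at 200 cells/uL, 12 h culture, 24 hr compound treatment, then luciferase reagent and a luminescence read; cells are HEK293 stably expressing a constitutively active GLP-1R plus cAMP-responsive luciferase.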
Potency means the concentration at half of the fitted maximal effect; tags describe the fitted curve by direction and shape.

SMILES | Potency
O=C(Cc1csc(-c2ccccc2)n1)NCC(=O)Nc1ccc(F)c(F)c1F | inconclusive [inhibitor, partial curve, poor fit]
CCOc1ccc(C(=O)N2CCCC(c3nc(-c4cccs4)no3)C2)cc1 (stereo unspecified) | inconclusive [inhibitor, partial curve, poor fit]
O=C(NCC(c1ccco1)N1CCCCC1)c1cnc(Cl)c(Cl)c1 (stereo unspecified) | inconclusive [inhibitor, partial curve, poor fit]
COc1ccc(-c2[nH]c(-c3ccccc3)nc2SCC(=O)Nc2nccs2)cc1 | inconclusive [inhibitor, single point]
N=C1/C(=C/c2coc3ccccc3c2=O)C(=O)N=C2SC(c3ccco3)=NN12 | inactive
CCOc1cc(C2c3c(n[nH]c3C)C(=O)N2c2ccc(Br)cc2)ccc1O (stereo unspecified) | inconclusive [inhibitor, partial curve, poor fit]
COc1ccc(C(=O)NCC(c2ccc3c(c2)OCO3)N2CCN(c3ccccc3F)CC2)cc1 (stereo unspecified) | inconclusive [inhibitor, partial curve, poor fit]
Cc1ccc(OCC(=O)Nc2cccc(S(=O)(=O)N3CCCCCC3)c2)cc1C | inconclusive [inhibitor, single point]
COc1cc(/C=C2/C(=O)NN(c3cccc(C)c3)C2=O)ccc1OC(=O)c1ccco1 | inconclusive [inhibitor, full curve, poor fit]
O=C(C1CCCO1)N1N=C(c2ccc(Br)cc2)CC1c1ccco1 (stereo unspecified) | inconclusive [inhibitor, single point]
Cc1ccccc1C(=O)N1CCC(C(=O)Nc2ccc(S(=O)(=O)N3CCCCC3)cc2)CC1 | inconclusive [inhibitor, single point]
O=C(NCC(c1ccco1)N1CCN(c2ccccc2)CC1)C1CCCCC1 (stereo unspecified) | inconclusive [inhibitor, partial curve]
Clc1ccc(CSc2ncnc3c2ncn3C2CCCCO2)cc1 (stereo unspecified) | active: 11.2 µM
CCOC(=O)/C=C/C(=O)Nc1ccccc1-c1ccccc1NC(=O)/C=C/C(=O)OCC | inconclusive [inhibitor, single point]
CN(CC(=O)Nc1ccccc1Br)C(=O)c1ccccc1-c1nc2ccccc2s1 | inconclusive [inhibitor, single point]
CCOCCCNC(=O)c1cc(Sc2ccc(C)cc2)nc2ccccc12 | active: 10 µM
COc1cccc(Nc2nc(N)c([N+](=O)[O-])c(NCc3ccccc3)n2)c1 | inconclusive [inhibitor, single point]
COc1cccc(C2CC(=O)Nc3c2c(=O)[nH]c2nc4ccccc4n32)c1 (stereo unspecified) | inactive
Cc1ccc(N/C=C/C(=O)c2cccs2)cc1 | inconclusive [inhibitor, single point]
CC(C(=O)NC(=O)NC1CCCCC1)N1CCN(c2ccc(O)cc2)CC1 (stereo unspecified) | inconclusive [inhibitor, full curve, poor fit]
COC(=O)c1cccc(/C=N/NC(N)=S)c1O | inconclusive [inhibitor, full curve, poor fit]

SMILES | Potency
C=CCN1C(=O)/C(=C/c2ccc(-c3ccc(F)cc3)o2)SC1=S | inactive
CCOc1ccc(-c2nnc(SCC(=O)Nc3cccc(OC)c3)nc2-c2ccc(OCC)cc2)cc1 | inactive
O=C(C1=C[C@@H](c2ccc(C(F)(F)F)cc2)C[C@@H](OCCCCO)O1)N1CCN(Cc2ccccc2)CC1 | inconclusive [inhibitor, single point]
CCCCCCN1C[C@H](O)[C@@H](n2cc(COC(=O)c3ccccc3)nn2)C[C@@H]1c1ccc(Cl)cc1 | inconclusive [inhibitor, single point]
CC1CCN(S(=O)(=O)c2ccc(NC(=O)CN3CCOCC3)cc2)CC1 | inactive
O=C(CSCc1ccccc1)NC1CCSC1=O (stereo unspecified) | inactive
CCOC(=O)c1c(-c2ccccc2)csc1NC(=O)CSc1ccccc1 | inconclusive [inhibitor, partial curve, poor fit]
O=C(NCC1CCCN(C(=O)c2cscn2)C1)c1ccccc1Cl (stereo unspecified) | inactive
O=c1cc(CN2CCN(S(=O)(=O)/C=C/c3ccccc3)CC2)c2ccc(O)cc2o1 | inconclusive [inhibitor, full curve]
COc1ccc(CC(=O)OCC(=O)c2ccc(S(=O)(=O)N3CCCCC3)cc2)cc1 | inconclusive [inhibitor, single point]
Cc1cccc(Cc2c(C)nc3c(-c4ccccc4)c(C)[nH]n3c2=O)c1 | inconclusive [inhibitor, full curve]
COc1ccc(C(O)c2nc(-c3ccc(F)cc3OC)cs2)cc1 (stereo unspecified) | inconclusive [inhibitor, single point]
COc1ccc(CN(CC2CCCO2)C(=O)c2cc3sccc3n2C)c(OC)c1 (stereo unspecified) | inconclusive [inhibitor, partial curve]
C(=C\c1ccc2ccccc2n1)/c1ccccc1 | active: 10 µM
O=C(CCCc1ccccc1)NCCS(=O)(=O)N1CCN(c2ccccc2F)CC1 | inconclusive [inhibitor, single point]
CCC(C)Nc1ncnc2c1cnn2-c1ccc(F)cc1 (stereo unspecified) | inconclusive [inhibitor, single point]
Cc1ccc(NC(=S)N2CCn3cccc3C2c2cccnc2)cc1 (stereo unspecified) | inconclusive [inhibitor, full curve, poor fit]
Cc1cc(C)n(-c2nc(NC(C)(C)C)nc(NC(C)(C)C)n2)n1 | inconclusive [inhibitor, full curve, poor fit]
COc1ccc(C(=O)N/N=C/c2cn[nH]c2-c2ccc(OC)cc2OC)cc1 | inconclusive [inhibitor, partial curve]
CCN(Cc1ccccc1)S(=O)(=O)c1ccc(-c2coc(C)n2)cc1 | inconclusive [inhibitor, partial curve, poor fit]
